The values below come from the supplement of paper PMC12645437, “Orthogonal IMiD-Degron Pairs Induce Selective Protein Degradation in Cells” (ACS Chemical Biology, 2025).

The list shows a part of the results.
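Also: jurkat cells carrying a lentiviral library of mutant zinc finger degrons fused to EGFP plus mCherry, mCherry+ cells FACS sorted, degron abundance counted by next-generation sequencing.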

For the test, the target named is no compound (DMSO). Nature of the test: log2 fold change of degron read counts, EGFP-low vs EGFP+ sorted cells; higher = lower degron-EGFP level without compound (poor expression or instability). The note with it: compound: DMSO control; 18 h.
In the case of FYCEICGRGFTQKGNLLRHIKL, the “log2 fold change of degron read counts” value was -2.31. For the sequence FWCNQCGHWFTQKGNLLRHIKL, the “log2 fold change of degron read counts” value is 2.1. The result for FWCNQCGHTFTQKGNLLRHIKL reads 0.872; that for LICEICGFPCTQKGNLLRHIKL, 0.529.

In the case of FSCPICGALFTQKGNLLRHIKL, the “log2 fold change of degron read counts” value came out at 0.439. With FNCNVCGADFTQKGNLLRHIKL the figure was -1.56; with LYCPICGFECTQKGNLLRHIKL, 0.591. With FACPICGRSFTQKGNLLRHIKL the figure was -0.148; with FRCPICGHTFTQKGNLLRHIKL, -0.099; with FECEICGAQFTQKGNLLRHIKL, -1.35. As to FICNQCGRKFTQKGNLLRHIKL, the “log2 fold change of degron read counts” value was -1.03.

As for FFCSVCGHAFTQKGNLLRHIKL, the “log2 fold change of degron read counts” value is 0.197. Consider FSCSVCGHCFTQKGNLLRHIKL, for which the “log2 fold change of degron read counts” value was -0.326. The result for FDCPVCGAWFTQKGNLLRHIKL reads -0.193; that for FFCNICGAHFTQKGNLLRHIKL, 0.447. With LMCEICGFFCTQKGNLLRHIKL the figure was 1.57.

In the case of FLCNQCGHIFTQKGNLLRHIKL, the “log2 fold change of degron read counts” value was 1.2.

Turning to LICNQCGFMCTQKGNLLRHIKL, the “log2 fold change of degron read counts” value was found to be 0.511. For the sequence FRCSVCGHSFTQKGNLLRHIKL, the “log2 fold change of degron read counts” value is 0.153. With FLCPICGACFTQKGNLLRHIKL the figure was 0.258. With FACPICGHDFTQKGNLLRHIKL the figure was -0.738; with FACNVCGAPFTQKGNLLRHIKL, 0.683.

In the case of FWCEICGAIFTQKGNLLRHIKL, the “log2 fold change of degron read counts” value came to 0.868.

For FVCNQCGASFTQKGNLLRHIKL, the “log2 fold change of degron read counts” value was -1.24.

Turning to FFCDVCGASFTQKGNLLRHIKL, the “log2 fold change of degron read counts” value is -1.5. On to FACNICGAFFTQKGNLLRHIKL, for which the “log2 fold change of degron read counts” value worked out at 0.463. With FQCDICGAPFTQKGNLLRHIKL the figure was -0.799; with FMCPVCGASFTQKGNLLRHIKL, 0.276; with FTCPICGAGFTQKGNLLRHIKL, -0.713.

Take FFCSVCGHEFTQKGNLLRHIKL: the “log2 fold change of degron read counts” value is -0.485. With FWCDQCGAIFTQKGNLLRHIKL the figure was 1.05; with FYCEICGATFTQKGNLLRHIKL, -1.1; with FECEICGADFTQKGNLLRHIKL, -2.22. With FDCEVCGAHFTQKGNLLRHIKL the figure was -1.66.

As to FACSVCGHWFTQKGNLLRHIKL, the “log2 fold change of degron read counts” value stood at 0.801.

With LECEICGFACTQKGNLLRHIKL, the “log2 fold change of degron read counts” value is -0.688.

In the case of FMCDVCGAYFTQKGNLLRHIKL, the “log2 fold change of degron read counts” value was -2.01. The result for FICEICGHQFTQKGNLLRHIKL reads -1.83; that for FQCEICGHDFTQKGNLLRHIKL, -2.37.

With FSCNICGASFTQKGNLLRHIKL, the “log2 fold change of degron read counts” value was -1.05. With LKCPICGFYCTQKGNLLRHIKL, the “log2 fold change of degron read counts” value came to 1.08. With FMCPVCGACFTQKGNLLRHIKL the figure was -0.166. With FACEICGAVFTQKGNLLRHIKL the figure was -1.09; with FNCNQCGRFFTQKGNLLRHIKL, 1.09.

For FACNVCGAWFTQKGNLLRHIKL, the “log2 fold change of degron read counts” value turned out to be 0.719. The result for FHCDICGAAFTQKGNLLRHIKL reads -0.769; that for FKCEICGHCFTQKGNLLRHIKL, -2.06; that for FQCNICGAHFTQKGNLLRHIKL, -1.3.

As to FYCEICGRQFTQKGNLLRHIKL, the “log2 fold change of degron read counts” value is -0.987. The result for FGCEVCGALFTQKGNLLRHIKL reads -0.935.
